Laboratory results from a collection of fitness landscapes (doi:10.1016/j.celrep.2020.107928).
The full ranking holds about 81,000 sequences; the median of “one-hybrid fitness for binding parS DNA” is about -0.17, and the highest 2% start at about 0.51. This is one part of the list.

B1: Caulobacter ParB omega fusion; a variant is named by its letters at X, in order, B8GW30 (parent)
chain: MESVVVGEPGMSEGRRGLGRGLSALLGEVDAAPAQAPGEQLGGSREAPIEILQRNPDQPRRTFREEDLEDLSNSIREKGVLQPILVRPSPDTAGEYQIVAGERAWRAAQRAGLKTVPIMVRELDDLAVLEIGIIENVQRADLNVLEEALSYKVLMEKFERTQENIAQTIGKSXSHVANXMRLLXLPDEVQSYLVSGELTAXHARAIAAAADPVALAKQIIEGGLSVRETEALARKAPNLSAGKSKGGRPPRVKDTDTQALESDLSSVLGLDVSIDHRGSTGTLTITYATLEQLDDLCNRLTRGI

Variants of: B1
Test: one-hybrid fitness for binding parS DNA (scaled: cognate 1, non-cognate 0); higher = stronger binding
Conditions: with parS DNA site
Summary of the method: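 In E. coli USO, a HIS3 reporter with its site placed 19 bp from the promoter was used to select Caulobacter ParB variants randomised at four specificity codons. Growth lasted 48 hours at 37°C on histidine-free M9 containing 0.1 mM IPTG and 5 mM 3-AT. Fitness was taken as the log change in variant-to-wild-type read ratio from Illumina sequencing of pre- and post-selection plasmids, rescaled between the non-cognate and cognate sites.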

| Variant | one-hybrid fitness for binding parS DNA |
| --- | --- |
| MISC | ≤ 0.2 |
| AGCP | ≤ 0.2 |
| TVVG | ≤ 0.2 |
| TQLY | ≤ 0.2 |
| GRVW | ≤ 0.2 |
| LGVT | ≤ 0.2 |
| IASH | ≤ 0.2 |
| PVCQ | ≤ 0.2 |
| GQYT | ≤ 0.2 |
| SKTR | ≤ 0.2 |
| YQTT | ≤ 0.2 |
| PAVS | ≤ 0.2 |
| NTHR | ≤ 0.2 |
| VNSE | ≤ 0.2 |
| TPWW | ≤ 0.2 |
| SNKN | ≤ 0.2 |
| TIDR | ≤ 0.2 |
| RSWN | 0.412 |
| ALNG | ≤ 0.2 |
| SIAG | ≤ 0.2 |
| LMLT | ≤ 0.2 |
| FLFG | ≤ 0.2 |
| NRWR | ≤ 0.2 |
| DTFG | ≤ 0.2 |

| Variant | one-hybrid fitness for binding parS DNA |
| --- | --- |
| KAKG | ≤ 0.2 |
| DGRL | ≤ 0.2 |
| FSRD | ≤ 0.2 |
| VSCC | ≤ 0.2 |
| NFLG | ≤ 0.2 |
| QTEI | ≤ 0.2 |
| SFGH | ≤ 0.2 |
| CGTS | ≤ 0.2 |
| PHCT | ≤ 0.2 |
| LFAC | ≤ 0.2 |
| TVLY | ≤ 0.2 |
| LLMQ | ≤ 0.2 |
| RQEA | 0.554 |
| HQAR | ≤ 0.2 |
| KRPG | ≤ 0.2 |
| DPQC | ≤ 0.2 |
| TNHL | ≤ 0.2 |
| FQYT | ≤ 0.2 |
| CYMC | ≤ 0.2 |
| KNRD | ≤ 0.2 |
| FWGS | ≤ 0.2 |
| NISR | ≤ 0.2 |
| ISSC | ≤ 0.2 |
| VGQL | ≤ 0.2 |

| Variant | one-hybrid fitness for binding parS DNA |
| --- | --- |
| FCIS | 0.332 |
| RIEN | 0.279 |
| YWPS | ≤ 0.2 |
| RHQS | 0.927 |
| QMFR | ≤ 0.2 |
| VADL | ≤ 0.2 |
| AQPG | ≤ 0.2 |
| IITT | ≤ 0.2 |
| IVFS | ≤ 0.2 |
| HRQA | ≤ 0.2 |
| TRHR | ≤ 0.2 |
| RCPI | ≤ 0.2 |
| TLVQ | ≤ 0.2 |
| CWCS | ≤ 0.2 |
| SKFR | ≤ 0.2 |
| SDFY | ≤ 0.2 |
| EKDT | ≤ 0.2 |
| PNLC | ≤ 0.2 |
| QVVQ | ≤ 0.2 |
| GLYC | ≤ 0.2 |
| VISI | ≤ 0.2 |
| MTMR | ≤ 0.2 |
| DVSF | ≤ 0.2 |
| KVTT | ≤ 0.2 |

| Variant | one-hybrid fitness for binding parS DNA |
| --- | --- |
| PLPY | ≤ 0.2 |
| GPQS | ≤ 0.2 |
| GCMG | ≤ 0.2 |
| WREV | ≤ 0.2 |
| RGHV | ≤ 0.2 |
| CQEC | ≤ 0.2 |
| DWRG | ≤ 0.2 |
| CLYM | ≤ 0.2 |
| LMWT | ≤ 0.2 |
| VFEC | ≤ 0.2 |
| KKVC | ≤ 0.2 |
| SGQC | ≤ 0.2 |
| EAMS | ≤ 0.2 |
| LCNW | ≤ 0.2 |
| EPHL | ≤ 0.2 |
| RHPL | ≤ 0.2 |
| REFP | ≤ 0.2 |
| YPLN | ≤ 0.2 |
| ETSR | ≤ 0.2 |
| CLVR | ≤ 0.2 |
| VPLF | ≤ 0.2 |
| NHLC | ≤ 0.2 |
| IAAS | ≤ 0.2 |
| SAPR | ≤ 0.2 |

| Variant | one-hybrid fitness for binding parS DNA |
| --- | --- |
| PNNN | ≤ 0.2 |
| TSEP | ≤ 0.2 |
| RVRC | 0.851 |
| LNPI | ≤ 0.2 |
| GAPS | ≤ 0.2 |
| SNLR | ≤ 0.2 |
| SDSW | ≤ 0.2 |
| EPRL | ≤ 0.2 |
| DMTL | ≤ 0.2 |
| PKWF | ≤ 0.2 |
| NVLG | ≤ 0.2 |
| VTRC | ≤ 0.2 |
| KREC | ≤ 0.2 |
| DPTQ | ≤ 0.2 |
| SGSM | ≤ 0.2 |
| YGAE | ≤ 0.2 |
| VQYA | ≤ 0.2 |
| QQGS | ≤ 0.2 |
| CHWR | ≤ 0.2 |
| NLCF | ≤ 0.2 |
| VRMR | ≤ 0.2 |
| DHTV | ≤ 0.2 |
| THPI | ≤ 0.2 |
| DVWG | ≤ 0.2 |

| Variant | one-hybrid fitness for binding parS DNA |
| --- | --- |
| LGVA | ≤ 0.2 |
| RISW | 0.246 |
| SSPH | ≤ 0.2 |
| GPRL | ≤ 0.2 |
| IYMR | ≤ 0.2 |
| ARQG | ≤ 0.2 |
| FYMA | ≤ 0.2 |
| GKKY | ≤ 0.2 |
| HRGS | 0.37 |
| GNNS | ≤ 0.2 |
| TCQG | ≤ 0.2 |
| SFQY | ≤ 0.2 |
| YGAA | ≤ 0.2 |
| SHPA | ≤ 0.2 |
| SQLG | ≤ 0.2 |
| PHLM | ≤ 0.2 |
| SRTN | ≤ 0.2 |
| QPSC | ≤ 0.2 |
| RLKF | 0.389 |
| WTET | ≤ 0.2 |
| TLYF | ≤ 0.2 |
| QFHV | ≤ 0.2 |
| KKYF | ≤ 0.2 |
| GMTI | ≤ 0.2 |

| Variant | one-hybrid fitness for binding parS DNA |
| --- | --- |
| RKQA | 0.712 |
| AGGE | ≤ 0.2 |
| QSGK | ≤ 0.2 |
| HRTQ | ≤ 0.2 |
| GKNS | ≤ 0.2 |
| REWG | ≤ 0.2 |
| IRVS | ≤ 0.2 |
| PTRM | ≤ 0.2 |
| NLPR | ≤ 0.2 |
| WMLN | ≤ 0.2 |
| QHSV | ≤ 0.2 |
| DAVM | ≤ 0.2 |
| RQEK | ≤ 0.2 |
| CAMR | ≤ 0.2 |
| CTNP | ≤ 0.2 |
| TGSE | ≤ 0.2 |
| EGET | ≤ 0.2 |
| ATMW | ≤ 0.2 |
| SECC | ≤ 0.2 |
| IKLC | ≤ 0.2 |
| ETTG | ≤ 0.2 |
| ACAK | ≤ 0.2 |
| PAKE | ≤ 0.2 |
| CQVR | ≤ 0.2 |

| Variant | one-hybrid fitness for binding parS DNA |
| --- | --- |
| TKNI | ≤ 0.2 |
| PHMI | ≤ 0.2 |
| HEHD | ≤ 0.2 |
| RFGQ | ≤ 0.2 |
| WSKT | ≤ 0.2 |
| TKCV | ≤ 0.2 |
| GCHR | ≤ 0.2 |
| VSAV | ≤ 0.2 |
| TGMI | ≤ 0.2 |
| VLCY | ≤ 0.2 |
| VELL | ≤ 0.2 |
| EQGH | ≤ 0.2 |
| PTSA | ≤ 0.2 |
| MNSN | ≤ 0.2 |
| MPTA | ≤ 0.2 |
| ASTA | ≤ 0.2 |
| TKLY | ≤ 0.2 |
| WCHC | ≤ 0.2 |
| ITKY | ≤ 0.2 |
| CFAT | ≤ 0.2 |
| SSDN | ≤ 0.2 |
| LAPY | ≤ 0.2 |
| MLTR | ≤ 0.2 |
| TYQD | ≤ 0.2 |

| Variant | one-hybrid fitness for binding parS DNA |
| --- | --- |
| PVRR | ≤ 0.2 |
| FCVS | ≤ 0.2 |
| VIPS | ≤ 0.2 |
| LYID | ≤ 0.2 |
| WQVT | ≤ 0.2 |
| ETRW | ≤ 0.2 |
| QATQ | ≤ 0.2 |
| RMPL | ≤ 0.2 |
| DCSS | ≤ 0.2 |
| MPRG | ≤ 0.2 |
| YHCT | ≤ 0.2 |
| MRAP | ≤ 0.2 |
| PCIV | ≤ 0.2 |
| WPSA | ≤ 0.2 |
| YVNS | ≤ 0.2 |
| WNYR | ≤ 0.2 |
| NAEW | ≤ 0.2 |
| LRDY | ≤ 0.2 |
| SYSF | ≤ 0.2 |
| PGQM | ≤ 0.2 |
| CWTC | ≤ 0.2 |
| PAQD | ≤ 0.2 |
| DLFL | ≤ 0.2 |
| VTNA | ≤ 0.2 |

| Variant | one-hybrid fitness for binding parS DNA |
| --- | --- |
| SFNC | ≤ 0.2 |
| QGSV | ≤ 0.2 |
| QRVR | ≤ 0.2 |
| SVCC | ≤ 0.2 |
| MMGT | ≤ 0.2 |
| HVLF | ≤ 0.2 |
| QNRP | ≤ 0.2 |
| PPHG | ≤ 0.2 |
| PGKV | ≤ 0.2 |
| QDVR | ≤ 0.2 |
| NASQ | ≤ 0.2 |
| GMKL | ≤ 0.2 |
| EQMG | ≤ 0.2 |
| ICVS | ≤ 0.2 |
| PCVS | ≤ 0.2 |
| RVSV | ≤ 0.2 |
| RMFM | 0.369 |
| YFAG | ≤ 0.2 |
| YVEF | ≤ 0.2 |
| HLGT | ≤ 0.2 |
| RNCY | 0.235 |
| RVVV | ≤ 0.2 |
| TNLT | ≤ 0.2 |
| IHSG | ≤ 0.2 |

| Variant | one-hybrid fitness for binding parS DNA |
| --- | --- |
| NPRI | ≤ 0.2 |
| FDTY | ≤ 0.2 |
| RKMD | ≤ 0.2 |
| PKSW | ≤ 0.2 |
| FLFS | ≤ 0.2 |
| QSDG | ≤ 0.2 |
| PVAC | ≤ 0.2 |
| FTGG | ≤ 0.2 |
| SVGE | ≤ 0.2 |
| CYYV | ≤ 0.2 |
| WEKR | ≤ 0.2 |
| WLIG | ≤ 0.2 |
| SMQP | ≤ 0.2 |
| QVDC | ≤ 0.2 |
| WSLY | ≤ 0.2 |
| SRSG | ≤ 0.2 |
| DWSV | ≤ 0.2 |
| TLSC | ≤ 0.2 |
| RLGH | 0.204 |
| APVN | ≤ 0.2 |
| TLTA | ≤ 0.2 |
| AMHS | ≤ 0.2 |
| GSGG | ≤ 0.2 |
| HSVV | ≤ 0.2 |

| Variant | one-hybrid fitness for binding parS DNA |
| --- | --- |
| DWIS | ≤ 0.2 |
| SFGR | ≤ 0.2 |
| QTKL | ≤ 0.2 |
| TAFW | ≤ 0.2 |
| YRCT | ≤ 0.2 |
| TDWL | ≤ 0.2 |
| KMDR | ≤ 0.2 |
| EFMR | ≤ 0.2 |
| NIGR | ≤ 0.2 |
| VASA | ≤ 0.2 |
| EPLL | ≤ 0.2 |
| KQGN | ≤ 0.2 |
| ARIQ | ≤ 0.2 |
| REDM | ≤ 0.2 |
| TRRD | ≤ 0.2 |
| TLKQ | ≤ 0.2 |
| YQLF | ≤ 0.2 |
| DPRL | ≤ 0.2 |
| VYKG | ≤ 0.2 |
| PLMA | ≤ 0.2 |
| RVRY | 0.583 |
| MVVS | ≤ 0.2 |
| GVLT | ≤ 0.2 |
| QNWI | ≤ 0.2 |

| Variant | one-hybrid fitness for binding parS DNA |
| --- | --- |
| SMGC | ≤ 0.2 |
| GIWV | ≤ 0.2 |
| NPLI | ≤ 0.2 |
| AHIF | ≤ 0.2 |
| HTPN | ≤ 0.2 |
| FCHL | ≤ 0.2 |
| RSMV | ≤ 0.2 |
| KIRM | ≤ 0.2 |
| KNAG | ≤ 0.2 |
| RFWC | 0.697 |
| TEDV | ≤ 0.2 |
| TWYS | ≤ 0.2 |
| LHMR | ≤ 0.2 |
| SSTE | ≤ 0.2 |
| MGMM | ≤ 0.2 |
| INQS | ≤ 0.2 |
| VMRL | ≤ 0.2 |
| TGNG | ≤ 0.2 |
